biological target: Recombinant heterodimeric HCV NS3/NS4A protease (strain 1a) (Hepatitis C virus genotype 1a, UniProt P27958); test: Spectrophotometric assay for HCV protease inhibitory activity (chromogenic ester substrates); assay type: biochemical; settings: Table 1: Ketones; read-out: Ki* Range

Compound | Ki
CC(C)[C@H](NC(=O)N[C@H](C(=O)N1C[C@H]2[C@@H]([C@H]1C(=O)NC(CC1CC1)C(=O)C(N)=O)C2(C)C)C(C)(C)C)C(=O)C1CCC1 (stereo partly shown) [compound 4089] | < 0.075 µM
CC(C)[C@@H](CC(=O)c1cccs1)NC(=O)N[C@H](C(=O)N1C[C@H]2[C@@H]([C@H]1C(=O)NC(CC1CC1)C(=O)C(N)=O)C2(C)C)C(C)(C)C (stereo partly shown) [compound 4085] | < 0.075 µM
CC(C)[C@@H](CC(=O)c1ccccn1)NC(=O)N[C@H](C(=O)N1C[C@H]2[C@@H]([C@H]1C(=O)NC(CC1CC1)C(=O)C(N)=O)C2(C)C)C(C)(C)C (stereo partly shown) [compound 4096] | < 0.075 µM
CC(C)[C@H](NC(=O)N[C@H](C(=O)N1C[C@H]2[C@@H]([C@H]1C(=O)NC(CC1CC1)C(=O)C(N)=O)C2(C)C)C(C)(C)C)C(=O)c1ccc(C(F)(F)F)cc1 (stereo partly shown) [compound 4130] | < 0.075 µM

same assay, conditions: Table 3, Esters; read-out: Ki* Range

Compound | Ki
CC(C)(C)[C@H](NC(=O)N[C@H](C(=O)OCC1CC1)C1CCCC1)C(=O)N1C[C@H]2[C@@H]([C@H]1C(=O)NC(CC1CC1)C(=O)C(N)=O)C2(C)C (stereo partly shown) [compound 4333] | < 0.075 µM
C=CCNC(=O)C(=O)C(CCCC)NC(=O)[C@@H]1[C@@H]2[C@H](CN1C(=O)[C@@H](NC(=O)N[C@H](C(=O)OC(C)(C)C)C(C)C)C1Cc3ccccc3C1)C2(C)C (stereo partly shown) [compound 4546] | 0.076 to 0.25 µM
CC(C)(C)OC(=O)[C@@H](NC(=O)N[C@H](C(=O)N1C[C@H]2[C@@H]([C@H]1C(=O)NC(CC1CCC1)C(=O)C(N)=O)C2(Cl)Cl)C1CCCCC1)C(C)(C)C (stereo partly shown) [compound 4394] | < 0.075 µM
C=CCNC(=O)C(=O)C(CCC)NC(=O)[C@@H]1[C@@H]2[C@H](CN1C(=O)[C@@H](NC(=O)N[C@H](C(=O)OC(C1CC1)C1CC1)C(C)(C)C)C(C)(C)C)C2(C)C (stereo partly shown) [compound 4381] | < 0.075 µM
C=CCNC(=O)C(=O)C(CCC)NC(=O)[C@@H]1CC2(CN1C(=O)[C@@H](NC(=O)N[C@H](C(=O)OC(C)(C)C)C(C)C)C(C)(C)C)SCCS2 (stereo partly shown) [compound 4570] | 0.076 to 0.25 µM
COC(=O)C1(NC(=O)N[C@H](C(=O)N2C[C@H]3[C@@H]([C@H]2C(=O)NC(CC2CCC2)C(=O)C(N)=O)C3(Cl)Cl)C(C)(C)C)CCCC1 (stereo partly shown) [compound 4624] | 0.076 to 0.25 µM
CC1(C)[C@@H]2[C@@H](C(=O)NC(CC3CC3)C(=O)C(N)=O)N(C(=O)[C@@H](NC(=O)NC3(C(=O)OCC4CC4)CCCCC3)C3CCCCC3)C[C@@H]21 (stereo partly shown) [compound 4430] | < 0.075 µM
CC(C)[C@H](NC(=O)N[C@H](C(=O)N1C[C@H]2[C@@H]([C@H]1C(=O)NC(CC1CC1)C(=O)C(N)=O)C2(C)C)C1(C(F)(F)F)CC1)C(=O)OCc1ccccc1 (stereo partly shown) [compound 4615] | 0.076 to 0.25 µM
CC(C)(C)[C@H](NC(=O)N[C@H](C(=O)N1C[C@H]2[C@@H]([C@H]1C(=O)NC(CC1CCC1)C(=O)C(N)=O)C2(C)C)C(C)(C)C)C(=O)OCc1ccccc1 (stereo partly shown) [compound 4334] | < 0.075 µM
C=CCNC(=O)C(=O)C(CCC(F)(F)F)NC(=O)[C@@H]1[C@@H]2[C@H](CN1C(=O)[C@@H](NC(=O)N[C@H](C(=O)OCc1ccccc1)C1CCC1)C(C)(C)C)C2(C)C (stereo partly shown) [compound 4552] | 0.076 to 0.25 µM
CC(C)(C)[C@@H](NC(=O)N[C@H](C(=O)N1C[C@H]2[C@@H]([C@H]1C(=O)NC(CC1CCC1)C(=O)C(N)=O)C2(C)C)C1CCCCC1)C(=O)OCc1ccccc1 (stereo partly shown) [compound 4514] | < 0.075 µM

same assay, conditions: Table 6; read-out: Ki* range

Compound | Ki
CC(C)(C)[C@H](NC(=O)NC1(C(F)(F)c2ccccc2)CCCCC1)C(=O)N1C[C@H]2[C@@H]([C@H]1C(=O)NC(CC1CC1)C(=O)C(N)=O)C2(C)C (stereo partly shown) [compound 4931] | < 0.075 µM
CC(C)(C)[C@H](NC(=O)NC1(Cc2ccccn2)CCCCC1)C(=O)N1C[C@H]2[C@@H]([C@H]1C(=O)NC(CC1CC1)C(=O)C(N)=O)C2(C)C (stereo partly shown) [compound 4921] | < 0.075 µM

same assay, conditions: Table 8; read-out: Ki*

Compound | Ki
CC(C)(C)[C@H](NC(=O)NC1(C(=O)OCc2ccccc2)CCCCC1)C(=O)N1C[C@H]2[C@@H]([C@H]1C(=O)NC(CC1CC1)C(=O)C(N)=O)C2(C)C (stereo partly shown) [drawing 1483] | 0.051 µM
CC(C)[C@H](NC(=O)N[C@H](C(=O)N1C[C@H]2[C@@H]([C@H]1C(=O)NC(CC1CC1)C(=O)C(N)=O)C2(C)C)C(C)(C)C)C(=O)C1CC1 (stereo partly shown) [drawing 1479] | 0.007 µM

Source: patent publication US7423058B2, “Inhibitors of hepatitis C virus NS3 protease” (Schering Corporation, priority 2004, dated 2008)
